# The other results are listed elsewhere or left out.
# Tested on: T1, C. trachomatis L2/434/Bu expressing GFP (CTL2-GFP)
# T1 construct: L2/434/Bu GFP intracellular growth in HeLa cells
# Design: species or system HeLa; C. trachomatis total inclusion area by high-content imaging, normalised to DMSO
# Settings: total inclusion area; 28.5 h, 10 µM; inhibitor
# Procedure, shortened: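 Host cell viability was gauged from Hoechst-stained nuclei counts, while chlamydial growth was taken from total inclusion area and inclusion number per well. Cells were fixed and imaged by high-content microscopy once bulk GFP and resorufin fluorescence had been measured.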
row,Compound,% of control remaining
1,COc1ccc(Oc2cc(Cl)nc(N)n2)cc1 [CBK261771],96.8789
2,O=C(O)c1oc2ccccc2c1CN1CCN(c2ccccc2)CC1 [CBK286948],111.993
3,Cc1ccc(-c2nn3c(C)nnc3s2)cc1NC(=O)c1ccc([N+](=O)[O-])o1 [CBK267247],77.1078
4,Cc1ccc(NC(=O)c2cncc(-c3ccc(C(=O)N4CCOCC4)cc3)c2)c(O)c1 [CBK160208],101.074
5,COc1ccc(F)cc1-c1cccc(CC2(C(=O)NCc3cccs3)CCOCC2)c1 [CBK285543],97.0775
6,COc1cc(CNc2cc(-c3ccc(N4CCOCC4)cc3)ncn2)cc(OC)c1OC [CBK091174],135.93
7,COc1cc2c(cc1OC)CN(C(=O)CSc1nc(-c3cccnc3)ccc1C#N)CC2 [CBK267464],102.701
8,COc1ccc(Cl)cc1NC(=O)CC(C)(C)CC(=O)O [CBK001236],90.6263
9,COC(=O)CNC(=O)c1nc(SC)ncc1Cl [CBK057651],98.5781
10,Cn1c(=O)n(C)c2cc(CNc3ccc(N4CCOCC4)c(C(=O)O)c3)ccc21 [CBK269463],84.6536
11,CC(Sc1nc2ccc(F)cc2c(=O)[nH]1)C(=O)N1CCOCC1 (stereo not drawn) [CBK305958],91.7971
12,CC(C)NC(=O)NC[C@H]1C[C@@H]2CC[N@]1C[C@@H]2CN1CCN(c2ccccn2)CC1 [CBK289112],86.1286
13,COC(=O)CN1N=C(C(C)(C)C)Cn2c(cc3sccc32)C1=O [CBK284177],80.2098
14,COc1ccccc1NC(=O)c1c(NC(=O)c2cc([N+](=O)[O-])ccc2Cl)sc2c1CCCC2 [CBK263827],103.741
15,CN(C)C(=O)COc1cccc(Nc2nc(Br)cn3ccnc23)c1 [CBK037989],154.889
16,COc1ccc(-c2nc(O)cc(C(F)(F)F)n2)cc1 [CBK003515],104.67
17,C=CCn1c(-c2sc(NC(=O)c3[nH]c4c(c3C)C(=O)CC(C)(C)C4)nc2C)n[nH]c1=S [CBK297757],102.32
18,CCc1cc(C(=O)OC)c(NC(=O)CC2NCCNC2=O)s1 (stereo not drawn) [CBK266990],128.655
19,CCn1c2cc(C)sc2c2cnn(CC(=O)N3CCCC3)c(=O)c21 [CBK284168],92.0664
20,CC(C)C(=O)Nc1ccc(-c2ccccc2)c2ccccc12 [CBK083731],49.3196
21,O=C(O)/C=N/NC(=O)c1ccco1 [CBK260923],94.8743

row,Compound,% of control remaining
1,O=S(=O)(c1ccc(F)cc1)N1CCCC1c1cccc(Cc2ccccc2)n1 (stereo not drawn) [CBK286231],85.3803
2,CC(C)(C)OC(=O)N1CCCC(c2nc3ccccc3cc2N)C1 (stereo not drawn) [CBK284711],103.854
3,CCCC/C=C/c1cnc(N)c(-c2ccc(C(=O)NCCO)cc2)n1 [CBK064141],118.189
4,CS(=O)(=O)c1ccc(-c2c[nH]c([C@@H]3COCCN3Cc3ccccc3)n2)cc1 [CBK289300],105.832
5,COc1ccc2nc(O)c(CN(c3ccccc3)S(=O)(=O)c3ccccc3)cc2c1 [CBK268093],101.784
6,CC(NC(=O)N1CCN(c2ccccc2)CC1)c1ccccc1 (stereo not drawn) [CBK155207],83.9498
7,O=C(NCCCn1ccnc1)c1ncoc1-c1ccccc1 [CBK283887],69.3907
8,Cc1cc(NC(=O)c2ccco2)c2ccccc2n1 [CBK116258],60.9744
9,COc1cc(/C=N/NC(=O)c2nonc2N)ccc1OC(=O)c1cc(F)c(F)cc1Cl [CBK262380],114.049
10,CCOC(=O)c1cnc(Nc2nc3ccccc3o2)nc1CSc1ncccn1 [CBK268885],113.413
11,N#Cc1ccccc1OCCO [CBK001443],91.7973
12,C=CCS(=O)(=O)N1CCC(c2nc(C)n3c(C)csc23)CC1 [CBK285251],97.384
13,CCOc1cc(C#N)cc(I)c1OCC(=O)O [CBK266326],133.568
14,O=C(c1cccs1)N1C[C@@H]2CCCCN(C3CCOCC3)[C@@H]2C1 [CBK285503],93.0069
15,Cn1c(COc2ccccc2)nnc1SCC(=O)c1cccc([N+](=O)[O-])c1 [CBK268397],88.3922
16,CC(C)(CN)CN(Cc1ccccc1C(F)(F)F)C(=O)Nc1c(F)cccc1F [CBK026822C],76.4004
17,CC(=O)Nc1cccc(-c2cn3ccnc3c(N3CCN(C)CC3)n2)c1 [CBK037930],104.916
18,CC(C)(C)NCC(O)CO/N=C(/c1ccncc1)c1ccc(Br)cc1 (stereo not drawn) [CBK023914G],87.1622
19,Cc1ccn(CCNCc2cc(-c3ccc(Cl)cc3)c[nH]c2=O)n1 [CBK284727],77.3668
20,CN1CCOCC(CNC(=O)c2ccc(-c3ccccc3CO)cc2)C1 (stereo not drawn) [CBK307601],74.2377
21,CCOc1cc(/C=N/NC(=O)c2cncc(Br)c2)c(Br)c(Br)c1O [CBK261386],93.2814

row,Compound,% of control remaining
1,Cc1ccccc1OC(C)C(=O)Nc1ccccc1C(=O)N1CCOCC1 (stereo not drawn) [CBK269753],90.2542
2,O=C(CSc1nnc(COc2ccc(Br)cc2)o1)OC1CCCCC1 [CBK027482],94.6893
3,CC(C)(C)c1ccc(N(C2CCNCC2)S(=O)(=O)c2cccc(C(F)(F)F)c2)cc1 [CBK165056T],29.5617
4,C[C@H]1CN2C[C@H](O)CC2CN1Cc1cccn1Cc1ccccc1F (stereo partly drawn) [CBK285165],84.5218
5,Cc1ccc(S(=O)(=O)NCCc2cn3ccc(C)cc3n2)cc1 [CBK287630],68.7683
6,Oc1ccc(-n2ncc(-c3ccc(F)cc3F)n2)cc1 [CBK112736],98.5464
7,Cc1cc(NC(=O)NC2CCSc3ccccc32)no1 (stereo not drawn) [CBK259296],8.826
8,CC(C)Nc1nccnc1SCCN(C)C [CBK105290],98.7417
9,CC(=O)Nc1ccc(S(=O)(=O)/N=C(\Nc2nc(C)cc(C)n2)Nc2ccccc2F)cc1 [CBK266134],92.758
10,Cc1nc2c(c(=O)[nH]1)CCN(Cc1[nH]c3ccccc3c1C)C2 [CBK283995],96.2352
11,Cn1ncc(N2CCN(C(=O)CCCOc3ccccc3)CC2)cc1=O [CBK306937],59.5146
12,CCn1cc(-c2cncn2CC(C)n2nc(C)cc2C)cn1 (stereo not drawn) [CBK281775],111.543
13,CC(C)(CO)C(O)C(=O)NC1CCCC(C(=O)O)C1 (stereo not drawn) [CBK286609],79.2274
14,Cc1cc(NC(=O)c2cc(C)oc2C)no1 [CBK058081],49.9255
15,N#CCCCN1CCC(Oc2cncc(OCc3ccc(Cl)c(Cl)c3)n2)C1 (stereo not drawn) [CBK084436],18.3894
16,O=C(Cc1ccccc1)N1CCN(c2ncccn2)CC1 [CBK144518],86.7329
17,S=C(NCCc1ccccc1)Nc1ccc2c(c1)OCCO2 [CBK267048],96.4974
18,O=C(COc1ccc(Br)cc1C(=O)O)NCCc1ccccc1 [CBK286796],90.0244
19,NCC(O)CNC(=O)c1cc(-c2ccc(Cl)cc2)[nH]n1 (stereo not drawn) [CBK160977],95.611
20,Cc1ccccc1NC(=O)Nc1cccc(F)c1 [CBK105831],89.3215
21,CSc1ncc(Cl)c(C(=O)Nc2ccc(S(=O)(=O)N3CCOCC3)cc2)n1 [CBK268775],77.7619

row,Compound,% of control remaining
1,Cc1cc(NS(=O)(=O)c2ccc(Cl)c([N+](=O)[O-])c2)n(C)n1 [CBK067259],106.269
2,Cc1ccc(-c2cc(=O)c3cc(OCC(=O)Nc4sc5c(c4C#N)CCCC5)ccc3o2)cc1 [CBK269062],109.497
3,Cc1noc(NS(=O)(=O)c2ccc(NC(=O)CCN3C(=O)c4ccccc4C3=O)cc2)c1C [CBK264091],28.9465
4,COCCNC(=O)c1cnn2c(C)c(Cc3cccc(C#N)c3)c(C)nc12 [CBK162096],88.9332
5,CN(CC(=O)Nc1cnc(-c2ccc(F)cc2)c(-c2ccco2)n1)S(=O)(=O)c1ccccc1 [CBK037214],143.212
6,CCCNc1nc(-c2ccc(SC)cc2)cn2ccnc12 [CBK066619],105.378
7,CCOC(=O)c1ncoc1-c1ccc(Cl)cc1Cl [CBK020578],15.2996
8,Cc1cc(C)n(CC(C)CNC(=O)NCCN2CCCCCC2=O)n1 (stereo not drawn) [CBK305389],93.703
9,C=CCNC(=O)Cn1cccc2cc(-c3ccc(OC)cc3)nc1-2 [CBK285348],111.95
10,COC(=O)c1c(NC(=O)CSc2nc[nH]n2)sc2c1CCCC2 [CBK267222],108.765
11,Cc1csc(NC(=O)CN2CCOC(c3ccc(F)cc3)C2)n1 (stereo not drawn) [CBK304703],84.8255
12,CCOC(=O)CC1C(=O)NCCN1Cc1ccoc1 (stereo not drawn) [CBK270066],77.1739
13,Cc1nc2ccc(NC(=O)CCn3nc(C)c(Cl)c3C)cc2s1 [CBK281634],96.3016
14,CC(=O)Nc1ccc(S(=O)(=O)N2CCN(c3ccc([N+](=O)[O-])cc3C(F)(F)F)CC2)cc1 [CBK264944],90.6554
15,CC(C)(CC(=O)O)CC(=O)Nc1ccc(N2CCCC2=O)cc1 [CBK299787],87.7596
16,FC(F)(F)c1ccnc(OCc2cccnc2)c1 [CBK115784],55.6882
17,c1ccc(OCCN2CCCN(c3nccc(OCC4COc5ccccc5O4)n3)CC2)cc1 (stereo not drawn) [CBK083980],76.0681
18,Cc1ccc2nc(-c3ccc(NC(=O)CSc4nnc(C)s4)cc3)sc2c1 [CBK266185],164.85

# From publication PMC12040169 (PLOS Biology, 2025)
